Reference: the supplement of paper PMC10670038
Where a name gives a salt, the structure may show the parent alone. ± gives the standard deviation of the averaged measurements. The full ranking holds about 2,000 compounds; the median of “relative cell viability vs DMSO, compound + 0.2 uM CuET” is about 1, and the lowest 2% start at about 0.25. The list shows a part of the results.

The molecules below were run on TE10 (assay: relative cell viability vs DMSO, compound + 0.2 uM CuET (fraction); TE10 is an esophageal squamous carcinoma line; higher = less cytotoxic). Conditions: 2 µM; co-treatment: CuET (bis(diethyldithiocarbamate)copper) 0.2 uM; 48 h.
Description: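 TE10 ESCC cells (1,000/well, 384-well plates) were treated with Selleck bioactive library compounds at 2 uM combined with 0.2 uM CuET (copper diethyldithiocarbamate) for 48 h. Viability was read by CellTiter-Glo and expressed relative to DMSO wells. Two technical replicates (A, B).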
In the case of O=c1[nH]c(=O)n([C@H]2C[C@H](O)[C@@H](CO)O2)cc1F [Floxuridine], the relative cell viability is reported as 1.1921 ± 0.00061.
Molecule C[N+]1(C)CCC(=C(c2ccccc2)c2ccccc2)CC1 [Diphemanil Methylsulfate] has a relative cell viability of 1.25 ± 0.088.
Work on COc1cc(/C=C/C(=O)O)ccc1O [Ferulic Acid] yielded a relative cell viability of 1.21 ± 0.12.
Molecule O=C1C(=O)N(Cc2ccc(Cl)c(Cl)c2)c2ccccc21 [Apoptosis Activator 2] has a relative cell viability of 0.803 ± 0.059.
O=C(NC1CCOCC1)c1ccc(-c2cc(-c3c[nH]nc3-c3ccccn3)ccn2)cc1 showed a relative cell viability of 1.12 ± 0.06.
Molecule NS(=O)(=O)c1cc2c(cc1Cl)NCNS2(=O)=O [Hydrochlorothiazide] has a relative cell viability of 1.08 ± 0.11.
Work on CN(C)CCC=C1c2ccccc2C=Cc2ccccc21 [Cyclobenzaprine HCl] yielded a relative cell viability of 1.1 ± 0.14.
With O=C1c2cccc(O)c2C(=O)c2c(O)cc(CO)cc21 [Aloe-emodin] the relative cell viability was 1.02 ± 0.11.
With CN(C)CCc1c[nH]c2ccc(C[C@H]3COC(=O)N3)cc12 [Zolmitriptan] the relative cell viability was 0.982 ± 0.026.
CC(C)(F)C[C@H](N[C@@H](c1ccc(-c2ccc(S(C)(=O)=O)cc2)cc1)C(F)(F)F)C(=O)NC1(C#N)CC1 [Odanacatib (MK-0822)] gave a relative cell viability of 0.77 ± 0.42.
Molecule COc1cc(C)c(/C=C/C(C)=C/C=C/C(C)=C/C(=O)O)c(C)c1C [Acitretin] has a relative cell viability of 1.14 ± 0.12.
CNC(=O)c1nn(C)c2c1C(C)(C)Cc1cnc(Nc3ccc(N4CCN(C)CC4)cc3)nc1-2 gave a relative cell viability of 0.753 ± 0.028.
Molecule CC(C)(O)CC[C@@H](O)[C@](C)(O)[C@H]1CC[C@@]2(O)C3=CC(=O)[C@@H]4C[C@@H](O)[C@@H](O)C[C@]4(C)[C@H]3CC[C@]12C [20-Hydroxyecdysone] has a relative cell viability of 1.107 ± 0.0052.
For CN[C@@H](C)C(=O)N[C@H](C(=O)N1CCC[C@H]1C(=O)Nc1snnc1-c1ccccc1)C1CCCCC1, the relative cell viability was 0.732 ± 0.045.
For COc1cc2nc(N3CCN(C(=O)C4CCCO4)CC3)nc(N)c2cc1OC (stereo not given) [Terazosin HCl], the relative cell viability was 0.9374 ± 0.008.
CN1CCN(c2cccc(Nc3nc4c(-c5ccc(S(C)(=O)=O)cc5)cccn4n3)c2)CC1 was tested, and the relative cell viability was 0.887 ± 0.064.
For CCCCC(=O)O[C@]1(C(=O)CO)[C@@H](C)C[C@H]2[C@@H]3CCC4=CC(=O)C=C[C@]4(C)[C@@]3(F)[C@@H](O)C[C@@]21C [Betamethasone valerate (Betnovate)], the relative cell viability was 1.08 ± 0.053.
Molecule CC(=O)OCC(=O)[C@@]1(O)CC[C@H]2[C@@H]3CCC4=CC(=O)CC[C@]4(C)[C@H]3C(=O)C[C@@]21C [Cortisone acetate] has a relative cell viability of 1.16 ± 0.061.
With CC(C)(C)c1cc(C(=O)C(C#N)=NNc2cccc(Cl)c2)no1 the relative cell viability was 0.924 ± 0.025.
OC[C@@H](O)[C@@H](O)[C@H](O)[C@@H](O)CO [Sorbitol] gave a relative cell viability of 1.136 ± 0.008.
In the case of O=C1c2c(O)cc(O)cc2OC(c2ccc(O)c(O)c2)C1O (stereo not given) [Taxifolin (Dihydroquercetin)], the relative cell viability is reported as 1.04 ± 0.022.
Work on CN(C)CCCOc1nn(Cc2ccccc2)c2ccccc12 [Benzydamine HCl] yielded a relative cell viability of 1.12 ± 0.12.
Work on FC(F)(F)c1ccc(/C=C/c2nc(COc3ccc(CCCCn4ccnn4)cc3)co2)cc1 [Mubritinib (TAK 165)] yielded a relative cell viability of 1.07 ± 0.087.
For CC(Oc1cc(-c2cnn(C3CCNCC3)c2)cnc1N)c1c(Cl)ccc(F)c1Cl [(S)-crizotinib], the relative cell viability was 1.12 ± 0.028.
With Cc1cn([C@@H]2C[C@@H](O)[C@H](CO)O2)c(=O)[nH]c1=O [Telbivudine] the relative cell viability was 1.02 ± 0.027.
O=C(N/N=C/c1ccc([N+](=O)[O-])o1)c1ccc(O)cc1 [Nifuroxazide] showed a relative cell viability of 1.3 ± 0.017.
Molecule Cc1cc(NC(=O)c2cccc(NC(=O)/C=C/CN(C)C)c2)ccc1Nc1nccc(-c2cccnc2)n1 has a relative cell viability of 0.782 ± 0.13.
Cc1cccc(Nc2cc(Cl)nc(SCC(=O)O)n2)c1C showed a relative cell viability of 1.2 ± 0.019.
For O=C(NC(NC(=S)Nc1ccc(F)c([N+](=O)[O-])c1)C(Cl)(Cl)Cl)C(c1ccccc1)c1ccccc1 (stereo not given), the relative cell viability was 0.726 ± 0.0092.
With OCc1ccc(O[C@@H]2O[C@H](CO)[C@@H](O)[C@H](O)[C@H]2O)cc1 [Gastrodin] the relative cell viability was 1.08 ± 0.029.
For Cn1cc(C2=C(c3ccc(Cl)cc3Cl)C(=O)NC2=O)c2ccccc21, the relative cell viability was 1.22 ± 0.013.
With CCc1cc(C(N)=S)ccn1 [Ethionamide] the relative cell viability was 1.13 ± 0.2.
CCc1c2c(nc3ccc(OC(=O)N4CCC(N5CCCCC5)CC4)cc13)-c1cc3c(c(=O)n1C2)COC(=O)[C@]3(O)CC [Irinotecan] gave a relative cell viability of 1.06 ± 0.028.
Work on CCc1c2c(nc3ccc(OC(=O)N4CCC(N5CCCCC5)CC4)cc13)-c1cc3c(c(=O)n1C2)COC(=O)[C@]3(O)CC [Irinotecan HCl Trihydrate] yielded a relative cell viability of 1.063 ± 0.0017.
OC[C@H]1O[C@@H](OCCc2ccc(O)cc2)[C@H](O)[C@@H](O)[C@@H]1O [Salidroside] was tested, and the relative cell viability was 1.09 ± 0.11.
C[C@H]1[C@H](NC(=O)/C(=N\OC(C)(C)C(=O)O)c2csc(N)n2)C(=O)N1S(=O)(=O)O [Aztreonam] showed a relative cell viability of 1.04 ± 0.024.
Work on COC(=O)c1ccc2c(c1)[nH]c1ncnc(NCCCN3CCCCC3)c12 yielded a relative cell viability of 0.91861 ± 0.0008.
CCOC(=O)NCCCC(=O)NCCc1ccccc1 gave a relative cell viability of 1.18 ± 0.12.
With CCC[C@H](NC(=O)/C(C#N)=C/c1cccc(Br)n1)c1ccccc1 [Degrasyn (WP1130)] the relative cell viability was 0.4245 ± 0.00065.
For COc1cc2c(cc1NS(=O)(=O)c1ccc(Br)cc1C)n(C)c(=O)n2C, the relative cell viability was 1.17 ± 0.15.
Molecule COc1cc(NC(=O)c2ccc(-c3ccc(Cl)cc3)o2)cc(OC)c1 has a relative cell viability of 0.906 ± 0.036.
Molecule CCOC(=O)CCC(=O)O[C@H]1[C@H](O[C@@H]2[C@@H](C)[C@H](O[C@H]3C[C@@](C)(OC)[C@@H](O)[C@H](C)O3)[C@@H](C)C(=O)O[C@H](CC)[C@@](C)(O)[C@H](O)[C@@H](C)C(=O)[C@H](C)C[C@@]2(C)O)O[C@H](C)C[C@@H]1N(C)C [Erythromycin Ethylsuccinate] has a relative cell viability of 1 ± 0.1.
With C[C@]12C=CC(=O)C=C1CC[C@@H]1[C@@H]2C(=O)C[C@@]2(C)[C@H]1CC[C@]2(O)C(=O)CO [Prednisone] the relative cell viability was 1.04 ± 0.13.
In the case of COC(=O)CC[C@H](NC(=O)[C@H](CC(=O)OC)NC(=O)OCc1ccccc1)C(=O)N[C@H](C(=O)N[C@@H](CC(=O)OC)C(=O)CF)C(C)C, the relative cell viability is reported as 1.19 ± 0.033.
CC1(C)[C@@H](O[C@H]2O[C@H](C(=O)O)[C@@H](O)[C@H](O)[C@H]2O[C@@H]2O[C@H](C(=O)O)[C@@H](O)[C@H](O)[C@H]2O)CC[C@]2(C)[C@H]3C(=O)C=C4[C@@H]5C[C@@](C)(C(=O)O)CC[C@]5(C)CC[C@@]4(C)[C@]3(C)CC[C@@H]12 [Ammonium Glycyrrhizinate] was tested, and the relative cell viability was 1.26 ± 0.14.
With COc1cc2nccc(Oc3ccc(NC(=O)Nc4ccc(F)cc4F)c(F)c3)c2cc1OC the relative cell viability was 0.942 ± 0.039.
CNC(=C[N+](=O)[O-])NCCSCc1csc(CN(C)C)n1 [Nizatidine] gave a relative cell viability of 1.26 ± 0.16.
In the case of CCC1=C[C@@H]2CN(C1)Cc1c([nH]c3ccccc13)[C@@](C(=O)OC)(c1cc3c(cc1OC)N(C)[C@H]1[C@@](O)(C(=O)OC)[C@H](OC(C)=O)[C@]4(CC)C=CCN5CC[C@]31[C@@H]54)C2 [Vinorelbine Tartrate], the relative cell viability is reported as 0.683 ± 0.014.
CC(C)CN(C[C@@H](O)[C@H](Cc1ccccc1)NC(=O)O[C@H]1CCOC1)S(=O)(=O)c1ccc(N)cc1 [Amprenavir] gave a relative cell viability of 1.02 ± 0.031.
Molecule C=CC(=O)Nc1cccc(Nc2nc(Nc3ccc(NC4CN(CCF)C4)cc3OC)ncc2C(F)(F)F)c1 has a relative cell viability of 0.817 ± 0.025.
CS(=O)(=O)Nc1ccc([N+](=O)[O-])cc1Oc1ccccc1 [Nimesulide] showed a relative cell viability of 1.08 ± 0.044.
CCOC(=O)c1ccc(N2NC(=O)C(=Cc3ccc([N+](=O)[O-])o3)C2=O)cc1 showed a relative cell viability of 0.916 ± 0.037.
CCn1cc(C(=O)O)c(=O)c2cc(F)c(N3CCN(C)CC3)cc21 [Pefloxacin Mesylate] was tested, and the relative cell viability was 1.17 ± 0.002.
For CCn1cc(C(=O)O)c(=O)c2cc(F)c(N3CCN(C)CC3)cc21 [Pefloxacin Mesylate Dihydrate], the relative cell viability was 1.18 ± 0.079.
Work on CCNC(=O)c1noc(-c2cc(Cl)c(O)cc2O)c1-c1ccc(OC)cc1 yielded a relative cell viability of 0.636 ± 0.028.
With C[C@@H]1CN(c2c(F)c(N)c3c(=O)c(C(=O)O)cn(C4CC4)c3c2F)C[C@H](C)N1 [Sparfloxacin] the relative cell viability was 1.11 ± 0.013.
Work on O=C(O)P(=O)(O)O [Foscarnet Sodium] yielded a relative cell viability of 1.12 ± 0.14.
In the case of CC(C)(C)NS(=O)(=O)c1cncc(-c2cc(F)c3nc(N)nn3c2)c1, the relative cell viability is reported as 1.17 ± 0.012.
CCN(CC)CCCC(C)Nc1c2ccc(Cl)cc2nc2ccc(OC)cc12 (stereo not given) [Quinacrine 2HCl] showed a relative cell viability of 0.891 ± 0.044.
Molecule Cc1[nH]c(/C=C2\C(=O)Nc3ccccc32)c(C)c1CCC(=O)O [TSU-68 (SU6668, Orantinib)] has a relative cell viability of 1.19 ± 0.14.
Molecule CC(=O)N1CCN(c2ccc(OCC3COC(Cn4ccnc4)(c4ccc(Cl)cc4Cl)O3)cc2)CC1 (stereo not given) [Ketoconazole] has a relative cell viability of 1.06 ± 0.073.
Work on CN(CCOc1ccc(NS(C)(=O)=O)cc1)CCc1ccc(NS(C)(=O)=O)cc1 [Dofetilide] yielded a relative cell viability of 1.15 ± 0.036.
With CC(C)NCC(O)c1ccc(NS(C)(=O)=O)cc1 (stereo not given) [Sotalol] the relative cell viability was 1.116 ± 0.0046.
In the case of C#C[C@]1(O)CC[C@H]2[C@@H]3CCc4cc(OC)ccc4[C@H]3CC[C@@]21C [Mestranol], the relative cell viability is reported as 1.03 ± 0.13.
C1=N/C2=N/c3ccc(OCCN4CCCC4)c(c3)COC/C=C/COCc3cccc(c3)C(=C1)N2 [Pacritinib (SB1518)] was tested, and the relative cell viability was 0.645 ± 0.03.
COc1cc(C=O)ccc1O [Vanillin] was tested, and the relative cell viability was 1.29 ± 0.042.
COc1ccc2cccc(CCNC(C)=O)c2c1 [Agomelatine] showed a relative cell viability of 0.93 ± 0.19.
Molecule CO[C@H]1C[C@@H]2CC[C@@H](C)[C@@](O)(O2)C(=O)C(=O)N2CCCC[C@H]2C(=O)O[C@H]([C@H](C)C[C@@H]2CC[C@@H](O)[C@H](OC)C2)CC(=O)[C@H](C)/C=C(\C)[C@@H](O)[C@@H](OC)C(=O)[C@H](C)C[C@H](C)/C=C/C=C/C=C/1C [Rapamycin (Sirolimus)] has a relative cell viability of 1.03 ± 0.21.
In the case of N[C@@H]1CCCN(c2c(/C=C3\SC(=O)NC3=O)cccc2-c2ccccc2)C1, the relative cell viability is reported as 1.12 ± 0.024.
In the case of Oc1ccc(Nc2nc(-c3ccc(Cl)cc3)cs2)cc1, the relative cell viability is reported as 1.05 ± 0.0032.
